The results in this text go back to the supplement of paper PMC12355420.

Several values for one entry are separate records, joined by “and”; a condition that tells them apart may be missing. Identical values can stand only once. Counter-ions that a name gives are not always drawn. Some of the results follow. Cut-off read from the data, not from the text of the source: active = 0.5 or less and inactive = the rest. Many values rest on one well or one pass, so single values are uncertain.

What all share (conditions): 50 µM; 24 h
For experiment [1], the system named is HeLa VPS33A reporter cells. Briefly: relative cell viability (CellMask signal) vs DMSO (fraction of DMSO); higher = less cytotoxic.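 Note: primary screen of an FDA-approved drug library in HeLa reporter cells in 96-well format, CellMask signal normalized to DMSO-treated wells set as 1, under 0.5 deemed highly cytotoxic.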
The test system of experiment [2] is HeLa VPS33A R498W KI + HA-SDC1-FLAG. As to the kind of experiment: relative GAG core protein HA-SDC1 amount per cell number vs DMSO (fraction of DMSO); higher = more SDC1 (GAG core protein).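 Note: HA-SDC1 level read out by In-Cell Western staining with an anti-HA antibody against the N-terminal tag, screening FDA-approved library drugs.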
The subject of experiment [3] is HeLa VPS33A KO + NLuc-VPS33A R498W. Briefly: relative mutant VPS33A R498W amount (NanoLuc luminescence) vs DMSO (fraction of DMSO); HeLa model of a glycosaminoglycan (GAG) storage disease; KI is knock-in and KO knock-out; SDC1 is syndecan 1; higher = higher mutant VPS33A level.
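Throughout, for relative mutant VPS33A R498W amount (NanoLuc luminescence) vs DMSO: screen of an FDA-approved drug library, NanoLuc luminescence read after lysing the treated cells, taken as a measure of mutant VPS33A protein stability.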

Compound `CCC(=O)O[C@]1(C(=O)SCF)[C@H](C)C[C@H]2[C@@H]3C[C@H](F)C4=CC(=O)C=C[C@]4(C)[C@@]3(F)[C@@H](O)C[C@@]21C` [Fluticasone propionate] returned a relative cell viability in experiment [1] of 1.03. The “relative GAG core protein HA-SDC1 amount per cell number” value in experiment [2] is inactive: 1.04. In experiment [3], the “relative mutant VPS33A R498W amount” value came to 1.42.

`COc1nc(N)nc2c1ncn2[C@@H]1O[C@H](CO)[C@@H](O)[C@@H]1O` [Nelarabine]: in experiment [1], the relative cell viability came to 1.07. Further, the “relative GAG core protein HA-SDC1 amount per cell number” value in experiment [2] was inactive: 1.15. Moreover, the “relative mutant VPS33A R498W amount” value in experiment [3] is 1.35.

Regarding `O=c1ccc2ccc(OCCCCN3CCN(c4cccc5sccc45)CC3)cc2[nH]1` [Brexpiprazole], the relative cell viability in experiment [1] was determined as 1.4. Besides, the “relative GAG core protein HA-SDC1 amount per cell number” value in experiment [2] is active: 0.419. Also, in experiment [3], the “relative mutant VPS33A R498W amount” value turned out to be 0.546.

Take `CC(C)CN(C[C@@H](O)[C@H](Cc1ccccc1)NC(=O)O[C@H]1CO[C@H]2OCC[C@H]21)S(=O)(=O)c1ccc(N)cc1` [Darunavir Ethanolate]: the “relative GAG core protein HA-SDC1 amount per cell number” value in experiment [2] is inactive: 0.723. Further, in experiment [3], the “relative mutant VPS33A R498W amount” value turned out to be 0.916.

Consider `CC(C(=O)O)c1cccc(C(=O)c2ccccc2)c1` (stereo not given) [Ketoprofen], for which the “relative GAG core protein HA-SDC1 amount per cell number” value in experiment [2] is inactive: 0.644. For the same compound, the “relative mutant VPS33A R498W amount” value in experiment [3] is 0.859.

`CCC(C)(C)C(=O)O[C@H]1C[C@@H](C)C=C2C=C[C@H](C)[C@H](CC[C@@H]3C[C@@H](O)CC(=O)O3)[C@H]21` [Simvastatin (Zocor)]: in experiment [2], the “relative GAG core protein HA-SDC1 amount per cell number” value was inactive: 0.578. Further, in experiment [3], the “relative mutant VPS33A R498W amount” value is 2.35.

In the case of `CCOC(=O)C1=C(C)NC(C)=C(C(=O)OC)C1c1cccc(Cl)c1Cl` (stereo not given) [Felodipine], the relative cell viability in experiment [1] stood at 0.0199.

Turning to `CC(C)C[C@H](NC(=O)CNC(=O)c1cc(Cl)ccc1Cl)B(O)O`, the relative cell viability in experiment [1] was 0.0196.

As to `CO[C@H]1C[C@@H]2CC[C@@H](C)[C@@](O)(O2)C(=O)C(=O)N2CCCC[C@H]2C(=O)O[C@H]([C@H](C)C[C@@H]2CC[C@@H](O)[C@H](OC)C2)CC(=O)[C@H](C)/C=C(\C)[C@@H](O)[C@@H](OC)C(=O)[C@H](C)C[C@H](C)/C=C/C=C/C=C/1C` [Rapamycin (Sirolimus)], the relative cell viability in experiment [1] turned out to be 0.00696.

`C[C@H]1[C@@H](O)O[C@@H]2O[C@@]3(C)CC[C@H]4[C@H](C)CC[C@@H]1[C@@]24OO3` [Dihydroartemisinin]: the relative cell viability in experiment [1] was 0.00735.

In experiment [1], `CC(COc1ccccc1)N(CCCl)Cc1ccccc1` (stereo not given) [Phenoxybenzamine HCl] showed a relative cell viability of 0.394.

Compound `C=CCc1ccc(O)c(-c2ccc(O)c(CC=C)c2)c1` [Honokiol] came in with a relative cell viability in experiment [1] of 0.0101.

With `C=C1CCN([C@H](C)[C@](O)(Cn2cncn2)c2ccc(F)cc2F)CC1` [Efinaconazole], in experiment [1], the relative cell viability is 0.0496.

The compound `CN1CCN(c2ccc3nc(-c4c(N)c5c(F)cccc5[nH]c4=O)[nH]c3c2)CC1` [Dovitinib Dilactic acid] had a relative cell viability in experiment [1] of 0.00657.

For the compound `COC(=O)C1=C(C)NC(C)=C(C(=O)OCCN(C)Cc2ccccc2)C1c1cccc([N+](=O)[O-])c1` (stereo not given) [Nicardipine HCl], the relative cell viability in experiment [1] came to 0.0255.

`Clc1ccc(CO/N=C(\Cn2ccnc2)c2ccc(Cl)cc2Cl)c(Cl)c1` [Oxiconazole (nitrate)] came in with a relative cell viability in experiment [1] of 0.00603.

For the compound `CCC(C)(C)c1ccc(CC(C)CN2C[C@@H](C)O[C@@H](C)C2)cc1` (stereo not given in full) [Amorolfine HCl], the relative cell viability in experiment [1] is 0.0104.

Compound `C=C[C@]1(C)C[C@@H](OC(=O)CSC(C)(C)CNC(=O)[C@H](N)C(C)C)[C@]2(C)[C@H](C)CC[C@]3(CCC(=O)[C@H]32)[C@@H](C)[C@@H]1O` [Valnemulin HCl] had a relative cell viability in experiment [1] of 0.0115.

`CCS(=O)(=O)N1CC(CC#N)(n2cc(-c3ncnc4[nH]ccc34)cn2)C1` [Baricitinib phosphate] came in with a relative cell viability in experiment [1] of 0.178.

Compound `CN1CCCC(n2nc(Cc3ccc(Cl)cc3)c3ccccc3c2=O)CC1` (stereo not given) [Azelastine HCl] gave a relative cell viability in experiment [1] of 0.00903.

For `CNCC[C@H](Oc1cccc2ccccc12)c1cccs1` [Duloxetine HCl], the relative cell viability in experiment [1] is 0.00649.

Take `CC(=O)c1c(C)c2cnc(Nc3ccc(N4CCNCC4)cn3)nc2n(C2CCCC2)c1=O`: the relative cell viability in experiment [1] was 0.0044 and 0.00355.

The compound `CCNC1(C(N)=O)CCN(c2ncnc3c2nc(-c2ccccc2Cl)n3-c2ccc(Cl)cc2)CC1` displayed a relative cell viability in experiment [1] of 0.00425.

In experiment [1], `CC1(C)CC[C@]2(C(=O)O)CC[C@]3(C)C(=CC[C@@H]4[C@@]5(C)CC[C@H](O)C(C)(C)[C@@H]5CC[C@]43C)[C@@H]2C1` [Oleanolic acid] displayed a relative cell viability of 0.0892.

Turning to `CCN(CC)C(=S)SSC(=S)N(CC)CC` [Disulfiram], in experiment [1], the relative cell viability was determined as 0.0464.

In experiment [1], `C=C[C@@H]1C[C@]1(NC(=O)[C@@H]1C[C@@H](Oc2ncc(OC)c3ccc(Cl)cc23)CN1C(=O)[C@@H](NC(=O)OC(C)(C)C)C(C)(C)C)C(=O)NS(=O)(=O)C1CC1` yielded a relative cell viability of 0.00633.

`CC(=O)O[C@H]1CC[C@@]2(C)C(=CC[C@@H]3[C@@H]2CC[C@]2(C)C(c4cccnc4)=CC[C@@H]32)C1` [Abiraterone acetate] had a relative cell viability in experiment [1] of 0.077.

In experiment [1], `C#C[C@]1(O)CC[C@H]2[C@@H]3CCC4=CCCC[C@@H]4[C@H]3C(=C)C[C@@]21CC` [Desogestrel] gave a relative cell viability of 0.00563.

`Cc1cncc(CN2CCC(=C3c4ccc(Cl)cc4CCc4cccnc43)CC2)c1` [Rupatadine Fumarate] showed a relative cell viability in experiment [1] of 0.0135.

With `NC(=O)N1CCC(CC(=O)N2CCC([C@H]3c4ncc(Br)cc4CCc4cc(Cl)cc(Br)c43)CC2)CC1` [Lonafarnib], the relative cell viability in experiment [1] is 0.00872.

`C[C@@H](NCCCc1cccc(C(F)(F)F)c1)c1cccc2ccccc12` [Cinacalcet] had a relative cell viability in experiment [1] of 0.00345.

The compound `COc1ccc2c(O[C@@H]3C[C@H]4C(=O)N[C@]5(C(=O)NS(=O)(=O)C6CC6)C[C@H]5/C=C\CCCCN(C)C(=O)[C@@H]4C3)cc(-c3nc(C(C)C)cs3)nc2c1C` [Simeprevir] returned a relative cell viability in experiment [1] of 0.00339.

In experiment [1], `CC(C)(CO)c1cc2cc(NC(=O)C3(c4ccc5c(c4)OC(F)(F)O5)CC3)c(F)cc2n1C[C@@H](O)CO` returned a relative cell viability of 0.00576.

As to `CC(=O)N1CCN(c2ccc(OCC3COC(Cn4ccnc4)(c4ccc(Cl)cc4Cl)O3)cc2)CC1` (stereo not given) [Ketoconazole], the relative cell viability in experiment [1] came to 0.0222.

`CN(C)c1ccc(C(=C2C=CC(=[N+](C)C)C=C2)c2ccc(N(C)C)cc2)cc1` [Crystal Violet] yielded a relative cell viability in experiment [1] of 0.0133.

The compound `N#Cc1ccc2[nH]cc(CCCCN3CCN(c4ccc5oc(C(N)=O)cc5c4)CC3)c2c1` [Vilazodone Hydrochloride] came in with a relative cell viability in experiment [1] of 0.427.

Take `CC/C=C\C/C=C\C/C=C\C/C=C\C/C=C\CCCC(=O)O` [Eicosapentaenoic Acid]: the relative cell viability in experiment [1] stood at 0.202.

`COC(=O)C1=CO[C@@H](O)[C@@H]2C(CO)=CC[C@H]12` [Genipin] displayed a relative cell viability in experiment [1] of 0.0633.

`N#CC[C@H](C1CCCC1)n1cc(-c2ncnc3[nH]ccc23)cn1` [Ruxolitinib phosphate] showed a relative cell viability in experiment [1] of 0.0143.

As for `COc1cccc2c1C(=O)c1c(O)c3c(c(O)c1C2=O)C[C@@](O)(C(=O)CO)C[C@@H]3O[C@H]1C[C@H](N)[C@@H](O)[C@H](C)O1` [Epirubicin HCl], the relative cell viability in experiment [1] was found to be 0.00308.

For `C[C@H]1[C@H](C)CC[C@]2(C(=O)O)CC[C@]3(C)C(=CC[C@@H]4[C@@]5(C)CC[C@H](O)C(C)(C)[C@@H]5CC[C@]43C)[C@H]12` [Ursolic acid], in experiment [1], the relative cell viability was 0.0085.

In the case of `CN(C)CC/C=C1/c2ccccc2Sc2ccc(Cl)cc21` [Chlorprothixene], the relative cell viability in experiment [1] stood at 0.00547.

In experiment [1], `CC[C@H](C)[C@H](N)C1=N[C@H](C(=O)N[C@@H](CC(C)C)C(=O)N[C@H](CCC(=O)[O-])C(=O)N[C@H](C(=O)N[C@H]2CCCCNC(=O)[C@H](CC(N)=O)NC(=O)[C@@H](CC(=O)[O-])NC(=O)[C@H](Cc3cnc[nH]3)NC(=O)[C@@H](Cc3ccccc3)NC(=O)[C@H]([C@@H](C)CC)NC(=O)[C@@H](CCCN)NC2=O)[C@@H](C)CC)CS1.[Zn+2]` [Bacitracin Zinc] came in with a relative cell viability of 0.0117.

In the case of `CC(C)(C)c1cc(C(C)(C)C)c(NC(=O)c2c[nH]c3ccccc3c2=O)cc1O` [Ivacaftor (VX-770)], the relative cell viability in experiment [1] amounted to 0.00469.

Turning to `CN(C)CCC=C1c2ccccc2C=Cc2ccccc21` [Cyclobenzaprine HCl], the relative cell viability in experiment [1] was found to be 0.0118.

In experiment [1], `COC(=O)C[C@](O)(CCCC(C)(C)O)C(=O)O[C@@H]1C(OC)=C[C@]23CCCN2CCc2cc4c(cc2[C@H]13)OCO4` [Homoharringtonine] came in with a relative cell viability of 0.00906.
